To fix the notation:
B1: chr10:33190432:33190433:-_ENSG00000150093_ENST00000302278|hu_mus|hu_hu_hu_mus_True|8_18 (ssRNA)
RNA: GGGAGUUCUACAGUCCGACGAUCUACAUUUUCCAAACCUGCAUGUGAAUAAAACCCUGGCCACAGAGCCCCAAAACUACCCUACUGUGACUAAGAUGCUGCUGCUGUGAGCUUGGUUGUUGUGGGAUUUGCACGGGAGGAUUCCAACAGAGGAUUGAGCAUCA
B2: 48270514_48270634_5294_3pUTR_ENSMUSG00000038143_ENSMUST00000079195|mouse|control|control (ssRNA)
RNA: GGGAGUUCUACAGUCCGACGAUCAUUAAGAAUAUACCACACCAGCAGAAUGAGGACAUUCUACUGUCCAUUAUAAGGGCCCAUGUAUAUUUCUAAUCAAAAAUUACUUUAAAUGUUUGUCUCUAUAGAUAUCUUCCCAGGAAUCAACAGAGGAUUGAGCAUCA
B3: chr9:49313425:49313426:-_ENSMUSG00000039542_ENSMUST00000166811|mus_hu|FALSE|FALSE (ssRNA)
RNA: GGGAGUUCUACAGUCCGACGAUCUUUUUAAAGGCAAAAGACACUAGAGAAAUGAGAUGUGUGUGUGUGCAUGUGUGUUUGUGUGUGUGCGUGCGUGUGUGUGUCUGUGGUGUUGGAAAUGCUCUGGUGAAGCUGCUGUGUCACCAACAGAGGAUUGAGCAUCA
B4: chr2:179515052:179515053:+_ENSMUSG00000000305_ENSMUST00000000314|mus_hu|mus_mus_mus_hu_False|38_108 (ssRNA)
RNA: GGGAGUUCUACAGUCCGACGAUCGCUUUCCCGCGCAGUCACCGUGAACGCCACCUGCUCGGAGGGGACCUGCAGCUCCCGGGUGGCGAAGACUGUCCCAUCCGCCCCAACUUUGAAGUCCAUGCUGUUGGUCUCAUAUUGUGUCAACAGAGGAUUGAGCAUCA
B5: 35840488_35842112_590_3pUTR_ENSG00000096063_ENST00000361690|human|control|control (ssRNA)
RNA: GGGAGUUCUACAGUCCGACGAUCUCAAGACCCUGUAACACUUGCUGAAUAAUUUUUUUGACACAAGGCAGUGGAAGCCCCUGAUAAUUGGAUUUGAUGAUCCACUUGAGCAGAUGAUGCCCCAAAACUUCAAAUACCAUGCAGCAACAGAGGAUUGAGCAUCA
B6: 135896128_135898039_2713_3pUTR_ENSMUSG00000039959_ENSMUST00000060311|mouse|control|control (ssRNA)
RNA: GGGAGUUCUACAGUCCGACGAUCCAAUCUCGCGUGAACACACCAUCAGCUCCUCGAACUUCCCUUUGCCUUGGACCACAAGAUCAGCAGCAUCCACCAUGAUGGUAGCUCCCCAACCAACAGCUUUGGAGGCGGAUAUCAGCCCAACAGAGGAUUGAGCAUCA
B7: chr1:78444685:78444686:-_ENSG00000162613_ENST00000370768|hu_mus|motif|central (ssRNA)
RNA: GGGAGUUCUACAGUCCGACGAUCGCCAGCCGAGCCAGACGACGGCGGAGGCACUGUGGAGUAGUCGGCCAUACCCACGCGGCAGCACACGCUGCCGUUUCCUCGCGGAGGGAGGCGCCGCUCUCGGUUAACUGCUAAGAAAGGCAACAGAGGAUUGAGCAUCA
B8: chr7:135832511:135832512:+_ENSMUSG00000042105_ENSMUST00000118605|mus_mus|FALSE|FALSE (ssRNA)
RNA: GGGAGUUCUACAGUCCGACGAUCAUCCUGCCUAUUCUAGAGUUAGUAUUUACAUCAGUCAAAAACAUUAUGUCCUUAUCUAAAAGCAUUUGGCACAAAACAAGCGGUCGAGUGUUGUCGGCCUUUUUCCCCCUCCCACCCCAUCAACAGAGGAUUGAGCAUCA
B9: chrX:69798090:69798091:-_ENSMUSG00000031343_ENSMUST00000055966|mus_mus|mus_mus_mus_hu_False|48_58 (ssRNA)
RNA: GGGAGUUCUACAGUCCGACGAUCAAGUCCCCGGGUUCUUGUCGUCUUGAUUCCCCUUGACCAGUGGUUCCAGGGAGAAUACUAAUCAGGAGAAGAAUCCCAAGGCUGGUCAUGUAACAGUGACUUGUUUGUGUGAUUAUCAUCCAACAGAGGAUUGAGCAUCA
B10: chr18:52893488:52893489:-_ENSG00000196628_ENST00000354452|hu_hu|hu_hu_hu_mus_True|38_48 (ssRNA)
RNA: GGGAGUUCUACAGUCCGACGAUCUAUUUAGACCAUUUCCGCGGAGUUAUGGCAUUUACUCAGUGCUGAUAGGUGGAAAAACUACUUGAACAGGGAUUUUUUUUUUUCUUAAUACAUGCCAAGAUUGUGUGGCUGUCAAAACAGCAACAGAGGAUUGAGCAUCA
B11: 91408844_91410396_1912_CDS_ENSMUSG00000040549_ENSMUST00000099716|mouse|control|control (ssRNA)
RNA: GGGAGUUCUACAGUCCGACGAUCUGCUAGCAUCUUCACCAAUGCCUGGCACGGCAUCUCAGUUCGCUCCAUUAGUUCAACAGCCUUUUGGAAUUCUUCCAUACAGGCCAGCCUUUCCUUCCAGUUGCUGCUGUCUAGAAGCUGCAACAGAGGAUUGAGCAUCA
B12: chr12:48362563:48362564:+_ENSG00000134291_ENST00000256686|hu_hu|hu_hu_hu_mus_False|78_88 (ssRNA)
RNA: GGGAGUUCUACAGUCCGACGAUCUCCGUCAAGCCCUUCGAUAGACCCAUAGACUCUUGGUAAAAACCACUUUGUAUGGGGAAGGAAAAGAAACGCCAAAAACUUUCCAAAAAGCGGGGGUGGGGUGAGGCGGGAGGGGGAGGUCAACAGAGGAUUGAGCAUCA
B13: chr3:49395588:49395589:-_ENSG00000233276_ENST00000419783|hu_mus|FALSE|FALSE (ssRNA)
RNA: GGGAGUUCUACAGUCCGACGAUCGUUCAUCUCGGUGUAGUCCCGGAUCGUGGUGCCUCAGAGAGACGCGACAUUCUCAAUGAGCAGCACCUUGCCCCGCAGGGAGCCCAGGCUCACAGGCUCCCCGCCCGUCAGCGGGCGCGCCAACAGAGGAUUGAGCAUCA
B14: 141595562_141595682_167_5pUTR_ENSG00000069849_ENST00000286371|human|control|control (ssRNA)
RNA: GGGAGUUCUACAGUCCGACGAUCCAGGCUCUGGUUGAGGGACUUCUUCUCGUUCUUCGUCAUGGUGUGCGCGCGGACGGCGAGAGGAGCUGCGGCCGCGGGGAUGGAGGCGGCGAGGGCUGCGGAGGCGCGUCCCGGCUCCGGCAACAGAGGAUUGAGCAUCA

Some of the results follow.

This test addresses T1, UNK ZnF1-3 (human, UniProt Q9C0B0 31-174).
T1 sequence: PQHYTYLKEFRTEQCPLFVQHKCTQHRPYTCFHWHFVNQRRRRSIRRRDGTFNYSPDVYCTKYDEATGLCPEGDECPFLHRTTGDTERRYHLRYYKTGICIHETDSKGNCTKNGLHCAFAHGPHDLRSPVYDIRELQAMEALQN
Put plainly: nsRBNS (natural sequence RNA bind-n-seq); RBNS binding buffer (assumed for nsRBNS): 25 mM Tris pH 7.5, 150 mM KCl, 3 mM MgCl2, 0.01% Triton X-100, 500 ug/ml BSA, 20 U/ml SUPERase-In, 4 C; UNK is unkempt and MSI1 is Musashi-1; names of the RNAs are library labels; protein concentration not given here; high values mean tight binding.
In turn, B1 displayed a binding signal of 1.23 enrichment R.
Consider B2, for which the binding signal turned out to be 1.38 enrichment R.
In the case of B3, the binding signal stood at 0.837 enrichment R.
The value for B4 was 0.73 enrichment R.
The value for B5 was 1.43 enrichment R; that for B6 was 1.3 enrichment R.
The value for B7 was 0.963 enrichment R; that for B8 was 1.51 enrichment R.
Turning to B9, the binding signal was determined as 0.609 enrichment R.
The value for B10 was 0.972 enrichment R.
Take B11: the binding signal amounted to 0.572 enrichment R.
B12: the binding signal worked out at 1.61 enrichment R.
To B13 belongs 0.544 enrichment R.
To B14 belongs 0.969 enrichment R.

Values taken from PMC12136788.
